Experiment [1] deals with T1, TRAF3 (mouse (endogenous in BM-pDCs)) (UniProt Q60803).
T1 sequence: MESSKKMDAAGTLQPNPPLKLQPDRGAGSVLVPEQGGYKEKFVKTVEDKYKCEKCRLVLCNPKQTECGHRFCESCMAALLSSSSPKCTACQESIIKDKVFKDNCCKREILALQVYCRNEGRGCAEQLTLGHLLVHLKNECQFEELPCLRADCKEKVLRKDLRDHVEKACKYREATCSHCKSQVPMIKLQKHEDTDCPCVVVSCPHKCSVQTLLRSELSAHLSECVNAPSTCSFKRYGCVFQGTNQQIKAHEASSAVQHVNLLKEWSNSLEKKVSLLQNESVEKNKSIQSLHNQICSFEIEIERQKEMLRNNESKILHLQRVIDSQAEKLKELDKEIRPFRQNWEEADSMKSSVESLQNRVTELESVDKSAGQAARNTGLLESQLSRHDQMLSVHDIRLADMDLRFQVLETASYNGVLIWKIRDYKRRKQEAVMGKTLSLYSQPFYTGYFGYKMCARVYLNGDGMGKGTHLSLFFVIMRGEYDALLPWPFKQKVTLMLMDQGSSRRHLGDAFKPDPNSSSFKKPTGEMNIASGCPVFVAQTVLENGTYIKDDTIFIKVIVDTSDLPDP
As to the kind of experiment: co-IP; WT or Arl8b Gt/Gt BM-pDCs, unstimulated or stimulated with 25 μg/mL polyU, immunoprecipitation with Ab against TRAF3 or rabbit IgG control; immunoblot.

Experiment [2] concerns the target T2, TNF receptor-associated factor 6 (TRAF6) (mouse (endogenous in BM-pDCs)) (UniProt P70196).
T2 sequence: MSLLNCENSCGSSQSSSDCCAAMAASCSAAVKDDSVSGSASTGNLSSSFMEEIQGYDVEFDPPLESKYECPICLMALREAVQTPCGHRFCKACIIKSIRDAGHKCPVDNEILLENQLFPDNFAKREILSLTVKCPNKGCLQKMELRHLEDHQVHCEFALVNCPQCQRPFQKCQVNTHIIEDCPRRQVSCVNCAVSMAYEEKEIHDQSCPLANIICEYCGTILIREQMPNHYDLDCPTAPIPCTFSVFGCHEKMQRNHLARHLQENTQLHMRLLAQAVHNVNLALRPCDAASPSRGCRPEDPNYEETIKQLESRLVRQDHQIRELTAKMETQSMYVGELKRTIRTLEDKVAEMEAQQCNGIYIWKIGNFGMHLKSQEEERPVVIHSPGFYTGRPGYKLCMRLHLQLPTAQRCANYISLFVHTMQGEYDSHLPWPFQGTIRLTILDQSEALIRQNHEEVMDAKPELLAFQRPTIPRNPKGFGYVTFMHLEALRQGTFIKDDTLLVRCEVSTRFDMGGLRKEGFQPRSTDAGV
As to the kind of experiment: co-IP; WT BM-pDCs stimulated with 25 μg/mL polyU for the indicated times, lysed, immunoprecipitation with Ab against TRAF6 or goat IgG control; immunoblot.

Experiment [3] deals with T2, TNF receptor-associated factor 6 (TRAF6) (mouse (endogenous in BM-pDCs)). The experiment in a line: co-IP; Arl8b Gt/Gt BM-pDCs stimulated with 25 μg/mL polyU for the indicated times, lysed, immunoprecipitation with Ab against TRAF6 or goat IgG control; immunoblot.

These are yes or no findings as the source states them, for the method shown. In cells and extracts the contact can be indirect. Some results given as binding are weak or reduced against the parent protein; the word gives no strength.

B1: IKKα (enzyme, UniProt Q60680 1-745)
chain: MERPPGLRPGAGGPWEMRERLGTGGFGNVSLYQHRELDLKIAIKSCRLELSSKNRERWCHEIQIMKKLDHANVVKACDVPEELNFLINDVPLLAMEYCSGGDLRKLLNKPENCCGLKESQILSLLSDIGSGIRYLHENKIIHRDLKPENIVLQDVGGKTIHKIIDLGYAKDVDQGSLCTSFVGTLQYLAPELFENKPYTATVDYWSFGTMVFECIAGYRPFLHHLQPFTWHEKIKKKDPKCIFACEEMTGEVRFSSHLPQPNSLCSLIVEPMESWLQLMLNWDPQQRGGPIDLTLKQPRCFALMDHILNLKIVHILNMTSAKIISFLLPCDESLHSLQSRIERETGINTGSQELLSETGISLDPRKPASQCVLDGVRGCDSYMVYLFDKSKTVYEGPFASRSLSDCVNYIVQDSKIQLPIIQLRKVWAEAVHYVSGLKEDYSRLFQGQRAAMLSLLRYNANLTKMKNTLISASQQLKAKLEFFRKSIQLDLERYSEQMTYGISSEKMLKAWKEMEEKAIHYSEVGVIGYLEDQIMSLHTEIMELQKSPYGRRQGDLMESLEQRAIDLYKQLKHRPPDHLYSDSTEMVKIIVHTVQSQDRVLKELFGHLSKLLGCKQKIIDLLPKVEVALSNIKEADNTVMFMQGKRQKEIWHLLKIACTQSSARSLVGSSLEGTVTPPVSAWLPPTLADREHPLTCVVTPQDGETLAQMIEENLNCLGHLSTIIREANEDQSSSLMSLDWSWLAE
In the case of B1, the binding entry in experiment [1] is “binds”.

B2: interferon regulatory factor 7 (IRF7) (protein, UniProt P70434 1-457)
chain: MAEVRGVQRVLFGDWLLGEVSSGQYEGLQWLNEARTVFRVPWKHFGRRDLDEEDAQIFKAWAVARGRWPPSGVNLPPPEAEAAERRERRGWKTNFRCALHSTGRFILRQDNSGDPVDPHKVYELSRELGSTVGPATENREEVSLSNALPTQGVSPGSFLARENAGLQTPSPLLSSDAGDLLLQVLQYSHILESESGADPVPPQAPGQEQDRVYEEPYAAWQVEAVPSPRPQQPALTERSLGFLDVTIMYKGRTVLQAVVGHPRCVFLYSPMAPAVRTSEPQPVIFPSPAELPDQKQLHYTETLLQHVSPGLQLELRGPSLWALRMGKCKVYWEVGSPMGTTGPSTPPQLLERNRHTPIFDFSTFFRELEEFRARRRQGSPHYTIYLGFGQDLSAGRPKEKTLILVKLEPWVCKAYLEGVQREGVSSLDSSSLGLCLSSTNSLYEDIEHFLMDLGQWP
For the molecule B2, the binding result in experiment [2] is “binds”; in experiment [3], “no binding (condition: in Arl8b Gt/Gt pDCs)”.
